Results as given in the supplement of paper PMC6089552.
Screen size: about 3,200 compounds; about 300 (9.4%) showed activity. The list shows a part of the results, in another mix than the full data.

System: A673/TR/shEF
Experiment: cell viability (LOESS-normalised, relative to median of negative controls) (log2 ratio); higher = more viable cells (less compound effect), active = hit call of the paper (over 3 MAD below the median)
Settings: treatment time: 72 h
Summary of the method: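 A673/TR/shEF Ewing sarcoma cells were plated at 1,500 per well in 384-well plates and cultured with or without doxycycline, added 24 h before compounds, to induce EWS-FLI1 shRNA knockdown. Library compounds at two or more concentrations, alongside DMSO controls, were applied for three days. Cell viability was measured by CellTiter-Glo luminescence on an Envision reader. Readings were LOESS-corrected per plate, divided by the median of negative controls and log2-transformed, and hits were wells lying at least three median absolute deviations from the median of all screened wells.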

[1] = 0.25 µM, library screen: screen1, EWS-FLI1 expression: high (no doxycycline)
[2] = 0.25 µM, library screen: screen1, EWS-FLI1 expression: low (doxycycline-induced shRNA knockdown)
[3] = 0.25 µM, library screen: screen2, EWS-FLI1 expression: high (no doxycycline)
[4] = 0.25 µM, library screen: screen2, EWS-FLI1 expression: low (doxycycline-induced shRNA knockdown)
[5] = 2.5 µM, library screen: screen1, EWS-FLI1 expression: high (no doxycycline)
[6] = 2.5 µM, library screen: screen1, EWS-FLI1 expression: low (doxycycline-induced shRNA knockdown)
[7] = 2.5 µM, library screen: screen2, EWS-FLI1 expression: high (no doxycycline)
[8] = 2.5 µM, library screen: screen2, EWS-FLI1 expression: low (doxycycline-induced shRNA knockdown)
[9] = 0.103 µM, library screen: screen3, EWS-FLI1 expression: high (no doxycycline)
[10] = 0.103 µM, library screen: screen3, EWS-FLI1 expression: low (doxycycline-induced shRNA knockdown)
[11] = 0.308 µM, library screen: screen3, EWS-FLI1 expression: high (no doxycycline)
[12] = 0.308 µM, library screen: screen3, EWS-FLI1 expression: low (doxycycline-induced shRNA knockdown)
[13] = 0.926 µM, library screen: screen3, EWS-FLI1 expression: high (no doxycycline)
[14] = 0.926 µM, library screen: screen3, EWS-FLI1 expression: low (doxycycline-induced shRNA knockdown)
[15] = 2.8 µM, library screen: screen3, EWS-FLI1 expression: high (no doxycycline)
[16] = 2.8 µM, library screen: screen3, EWS-FLI1 expression: low (doxycycline-induced shRNA knockdown)
[17] = 8.3 µM, library screen: screen3, EWS-FLI1 expression: high (no doxycycline)
[18] = 8.3 µM, library screen: screen3, EWS-FLI1 expression: low (doxycycline-induced shRNA knockdown)
[19] = 25 µM, library screen: screen3, EWS-FLI1 expression: high (no doxycycline)
[20] = 25 µM, library screen: screen3, EWS-FLI1 expression: low (doxycycline-induced shRNA knockdown)

Measured: cell viability (log2)

O=C1N=C(O)CN1/N=C/c1ccc(-c2ccc([N+](=O)[O-])cc2)o1
inactive: [1] 0.00489 | [2] 0.0859 | [3] 0.195 | [4] 0.124 | [5] 0.094 | [6] 0.0865 | [7] 0.0996 | [8] 0.0435

COc1ccc(/C=C/c2cc(O)cc(O[C@@H]3O[C@H](CO)[C@@H](O)[C@H](O)[C@H]3O)c2)cc1O
inactive: [1] 0.0642 | [2] 0.0827 | [5] 0.111 | [6] 0.162

CN(C(=O)CCCOc1ccc2[nH]c(=O)ccc2c1)C1CCCCC1
inactive: [3] 0.137 | [4] 0.0412 | [7] 0.156 | [8] 0.0867

NNC(=O)c1ccncc1
inactive: [9] 0.0921 | [10] 0.0306 | [1] 0.0192 | [2] 0.0479 | [11] 0.0876 | [12] 0.0956 | [13] 0.185 | [14] 0.0683 | [5] 0.138 | [6] 0.0125 | [15] 0.167 | [16] 0.115 | [17] 0.105 | [18] 0.0697 | [19] 0.0945 | [20] 0.108

CC1(C)C(=O)C=C[C@]2(C)C3CC[C@@]4(C)[C@H](c5ccoc5)OC(=O)[C@H]5O[C@]54[C@]3(C)C(=O)C[C@@H]12 (stereo partly specified)
inactive: [1] 0.0539 | [2] 0.0813 | [5] 0.0765 | [6] 0.119

CCN1CCCC1CNC(=O)c1cc(S(N)(=O)=O)ccc1OC (stereo unspecified)
inactive: [1] 0.0596 | [2] 0.086 | [3] 0.121 | [4] 0.0393 | [5] 0.131 | [6] 0.024 | [7] 0.115 | [8] 0.0627

COc1ccc(-c2ccc3cc(C(=O)O)ccc3c2)cc1C12CC3CC(CC(C3)C1)C2
inactive: [9] 0.102 | [10] 0.161 | [11] 0.115 | [12] 0.135 | [13] 0.165 | [14] 0.126 | [15] 0.00566 | [16] 0.133 | [17] 0.0112 | [18] 0.0627 | [19] 0.0426 | [20] 0.101

O=C(O)c1cc2cc(F)ccc2[nH]1
active: [3] -0.173
inactive: [1] 0.0776 | [2] -0.00933 | [4] 0.0925 | [5] 0.156 | [6] 0.00267 | [7] 0.154 | [8] 0.0908

O=C(O)c1cccnc1
inactive: [9] 0.122 | [10] 0.0859 | [1] 0.026 | [2] 0.0468 | [11] 0.125 | [12] 0.0891 | [13] 0.033 | [14] 0.0696 | [5] 0.14 | [6] 0.000707 | [15] 0.00382 | [16] 0.0785 | [17] 0.0287 | [18] 0.0629 | [19] 0.0609 | [20] 0.0367

CCCCc1oc2ccccc2c1C(=O)c1cc(I)c(OCCN(CC)CC)c(I)c1
inactive: [1] 0.163 | [2] 0.0374 | [3] 0.0155 | [4] 0.134 | [5] 0.154 | [6] 0.147 | [7] 0.103 | [8] 0.193

O=c1cccc2ccc(O)c(O)c2c1O
inactive: [1] 0.0319 | [2] -0.0442 | [5] 0.142 | [6] -0.0155

O=C(O)CSc1nnc(COc2ccccc2)n1-c1ccc(Cl)cc1
inactive: [1] 0.0719 | [2] -0.0199 | [5] 0.0305 | [6] 0.0659

N[C@@H](COP(=O)(O)O)C(=O)O
inactive: [3] 0.136 | [4] 0.0963 | [7] 0.109 | [8] 0.0529

Cc1cccc(N(C)C(=S)Oc2ccc3ccccc3c2)c1
inactive: [1] 0.128 | [2] 0.0463 | [5] 0.15 | [6] 0.162

CC1(COc2ccc(CC3SC(=O)NC3=O)cc2)CCCCC1 (stereo unspecified)
inactive: [3] 0.267 | [4] 0.13 | [7] 0.13 | [8] 0.0913

COc1ccc(-c2coc3cc(O)ccc3c2=O)c(OC)c1
inactive: [1] 0.0725 | [2] -0.0145 | [5] 0.104 | [6] -0.0119

O=C(O)CCC(=O)c1ccc(-c2ccccc2)cc1
inactive: [1] 0.0194 | [2] -0.00397 | [5] 0.14 | [6] 0.0593

O=c1c2ccccc2[nH]c2ccccc12
inactive: 0.025 µM, library screen: screen2, EWS-FLI1 expression: high (no doxycycline) 0.0276 | 0.025 µM, library screen: screen2, EWS-FLI1 expression: low (doxycycline-induced shRNA knockdown) 0.00968 | [3] 0.0984 | [4] -0.0475 | [7] 0.133 | [8] 0.0137 | 25 µM, library screen: screen2, EWS-FLI1 expression: high (no doxycycline) 0.0105 | 25 µM, library screen: screen2, EWS-FLI1 expression: low (doxycycline-induced shRNA knockdown) -0.000171

CN1CCN2c3ccccc3Cc3ccccc3C2C1 (stereo unspecified)
inactive: [9] 0.00273 | [10] 0.0342 | [3] 0.152 | [4] 0.0884 | [11] -0.0924 | [12] 0.0198 | [13] -0.015 | [14] -0.00365 | [7] 0.0952 | [8] 0.112 | [15] 2.2e-06 | [16] -0.00496 | [17] 0.0301 | [18] 0.0611 | [19] 0.0459 | [20] 0.00696

N[C@@H](Cc1ccc(O)c(O)c1)C(=O)O
inactive: [9] 0.0249 | [10] 0.0537 | [1] 0.089 | [2] 0.0839 | [3] 0.0601 | [4] 0.041 | [11] 0.142 | [12] 0.082 | [13] 0.0359 | [14] 0.0472 | [5] 0.208 | [6] 0.085 | [7] 0.0538 | [8] 0.0939 | [15] 0.121 | [16] 0.0993 | [17] 0.0567 | [18] 0.0427 | [19] 0.106 | [20] 0.117

CCOC(=O)C1=C(C)NC(C)=C(C(=O)OC)C1c1cccc(Cl)c1Cl (stereo unspecified)
inactive: [9] 0.188 | [10] -0.0247 | [3] 0.0436 | [4] 0.0605 | [11] 0.0751 | [12] 0.0708 | [13] 0.111 | [14] 0.074 | [7] 0.171 | [8] 0.0778 | [15] 0.149 | [16] 0.0833 | [17] 0.107 | [18] 0.0632 | [19] 0.139 | [20] 0.152
